The source of these data is patent US12691262B2, “Method for treatment of airway stricture or stenosis” (Airiver Medical, Inc., priority 2021, dated 2026).

“And” between values parts separate entries of the source, which are not always exact repeats. Equal entries are not always repeated.

A short description of data set [1]: Chronic preclinical study: nasal tissue paclitaxel. In kind it is in vivo, sheep. The conditions noted are these: 28 d, LT Nasal Tx 1 (superior nasal cavity), DCB 8 × 30. How it is done: Examples 3 and 4 describe acute and chronic studies on the nasal tissue with 5 live sheep. In Examples 3 and 4, the nasal treatment sites were flushed with a solution that was saline or water, the balloon catheter was inserted to the nasal treatment site, the balloon catheter was soaked at the site to hydrate and activate the drug coating at the site of treatment, prior to inflation. The drug coated catheters were inflated at the target site for 3-5 minutes.

A short description of data set [2]: in vivo. The conditions noted are these: sheep, trachea treatment site tissue, other: drug coated balloon inflated against the airway wall, 12865 ug.
The nature of data set [3]: Treatment site (tracheobronchial) paclitaxel pharmacokinetics after drug coated balloon treatment; tissue assayed via HPLC-MS. The conditions noted are these: 7 d, Trachea treatment site, 18 × 65 balloon, inflation 2 min.

On to `CC(=O)O[C@H]1C(=O)[C@@]2(C)[C@H]([C@H](OC(=O)c3ccccc3)[C@]3(O)C[C@H](OC(=O)[C@H](O)[C@@H](NC(=O)c4ccccc4)c4ccccc4)C(C)=C1C3(C)C)[C@]1(OC(C)=O)CO[C@@H]1C[C@@H]2O` [paclitaxel], for which the “Total Paclitaxel (in nasal tissue)” value in data set [1] stood at 0.316 ng. The concentration at 28 d in data set [1] (sheep, nasal tissue, left superior nasal cavity (LT Nasal Tx 1), 3.5 μg/mm^2 of balloon surface, read-out: Conc. (paclitaxel in nasal tissue)) came to 0.962 ng/g. Moreover, the concentration at 7 d in data set [2] was 35.4 ng/g. For the same compound, the “Total Paclitaxel (in tissue)” value in data set [3] was 312 ng and 372 ng and 389 ng.
